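Method: 48-hour compound exposure of cells in 96-well plates, five concentrations, linear interpolation of endpoints. The concentration for full growth arrest is given as TGI.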 Not every entry of the source has a single result; some have several. This is not the full list of results. There may be further records. For part of these data: The tests behind the records often covered other concentration ranges, not given here; some values may only mark the edge of a range. For part of these data: Values given together are repeats (runs, samples, wells, individuals or studies). Records carry a tag for their origin. Letters hold for one entry only.
Assays:
Assay in all cases: growth of human tumour cells (NCI), 48 h
SW-620 colon = test system: SW-620 colon
HL-60(TB) leukemia = test system: HL-60(TB) leukemia
RPMI-8226 leukemia = test system: RPMI-8226 leukemia
U251 CNS = test system: U251 CNS
NCI-H460 lung = test system: NCI-H460 lung
M14 melanoma = test system: M14 melanoma

With `CN(CCCNc1ccc2ncn3c4ccccc4c(=O)c1c23)CCCN1C(=O)c2cccc3cc([N+](=O)[O-])cc(c23)C1=O` the TGI (SW-620 colon) was 108 nM and > 100 µM, the TGI (HL-60(TB) leukemia) was 281 nM and > 100 µM and the TGI (RPMI-8226 leukemia) was 359 nM and > 100 µM.

`Cc1cc(C2CCCCC2)n(O)c(=O)c1` was tested, and the TGI (U251 CNS) was 8.04 µM [sample A] and > 100 µM [sample B], the TGI (NCI-H460 lung) was > 100 µM [sample A] and 3.77 µM [sample B] and the TGI (M14 melanoma) was 45.6 µM [sample A] and 4.33 µM [sample B].

— PubChem BioAssay (NCI)
